Some of the results follow.
The molecules below were run on HSkMC (human skeletal muscle cells) (assay: cytotoxicity call (relative viability < 0.9)). Conditions: 10 µM.

Row | Compound | cytotoxicity call
1 | N#Cc1cccc2ccsc12 | inactive
2 | CC1(C)Cc2c(-c3ccccc3)c(-c3ccc(Cl)cc3)c(CC(=O)O)n2C1 | inactive
3 | C[C@H]1CN([C@@H](C)CO)C(=O)c2cccc(NC(=O)c3ccc(-c4nccs4)cc3)c2O[C@@H]1CN(C)Cc1ccc(C(F)(F)F)cc1 | active
4 | CN1CCC[C@]2(CCN(C(=O)CCn3ccc(=O)[nH]c3=O)C2)C1=O | inactive
5 | C=CC[C@H](CC(=O)N(CCO)Cc1ccccc1)C(=O)N[C@H](COC(=O)[C@H](CC=C)NC(=O)OCC1c2ccccc2-c2ccccc21)C(C)(C)C | inactive
6 | C[C@@H]1CCCCO[C@H](CN(C)S(=O)(=O)c2ccc(Cl)cc2)[C@@H](C)CN([C@H](C)CO)C(=O)c2cc(NS(=O)(=O)c3cccs3)ccc2O1 | inactive
7 | OCc1cc(O)c2c(O)c3c(O)cccc3c(O[C@@H]3O[C@H](CO)[C@@H](O)[C@H](O)[C@H]3O)c2c1 | inactive
8 | C[C@@H]1CN([C@@H](C)CO)C(=O)c2cc(NC(=O)Nc3ccccc3)ccc2O[C@@H](C)CCCCO[C@@H]1CN(C)CC1CCCCC1 | active
9 | C[C@H]1CN([C@@H](C)CO)S(=O)(=O)c2ccc(C#Cc3ccccc3)cc2O[C@@H]1CN(C)S(C)(=O)=O | inactive
10 | C[C@@H]1CCCCO[C@H](CN(C)Cc2ccccc2)[C@H](C)CN([C@H](C)CO)C(=O)c2cc(NC(=O)Nc3ccc(C(F)(F)F)cc3)ccc2O1 | active

Each molecule was assayed on HepG2 (assay: cytotoxicity call (relative viability < 0.9)). Conditions: 10 µM.

Row | Compound | cytotoxicity call
11 | CO[C@H]1CN(C)C(=O)c2ccc(NC(=O)NC(C)C)cc2OC[C@@H](C)N(Cc2ccc(-c3ccccn3)cc2)C[C@H]1C | inactive
12 | C[C@H]1CN([C@@H](C)CO)C(=O)c2cccc(NS(=O)(=O)c3cccs3)c2O[C@@H]1CN(C)Cc1ccc(Oc2ccccc2)cc1 | inactive
13 | COc1ccc(S(=O)(=O)N(C)C[C@H]2Oc3ccc(NC(=O)CCN4CCOCC4)cc3CC(=O)N([C@H](C)CO)C[C@H]2C)cc1 | inactive
14 | C[C@@H]1CN([C@@H](C)CO)C(=O)c2cc(NC(=O)C3CCCCC3)ccc2O[C@@H](C)CCCCO[C@@H]1CN(C)C(=O)NC1CCCCC1 | inactive
15 | CC(=O)c1cncnc1 | inactive
16 | Cc1noc(C)c1S(=O)(=O)Nc1ccc2c(c1)C(=O)N([C@H](C)CO)C[C@H](C)[C@@H](CN(C)CC1CC1)O2 | inactive
17 | Cn1cnc(S(=O)(=O)N2C[C@@H](O)COC[C@H]3O[C@H](CC(=O)NC4CCC4)CC[C@@H]32)c1 | inactive
18 | C[C@H](CO)N1C[C@H](C)[C@@H](CN(C)Cc2ccc3c(c2)OCO3)OCCCC[C@H](C)Oc2ccc(NC(=O)c3ccccc3)cc2C1=O | inactive
19 | Cc1noc(C)c1NC(=O)Nc1ccc2c(c1)CC(=O)N([C@@H](C)CO)C[C@@H](C)[C@@H](CN(C)Cc1ccc(C(=O)Nc3ccccc3N)cc1)O2 | inactive
20 | C[C@H](CO)N1C[C@H](C)[C@@H](CN(C)Cc2ccc(Cl)c(Cl)c2)Oc2ccc(NC(=O)Nc3ccc(C(F)(F)F)cc3)cc2CC1=O | active
21 | C[C@@H]1CN([C@H](C)CO)S(=O)(=O)c2ccc(C#Cc3cccnc3)cc2O[C@H]1CN(C)C(=O)CN(C)C | inactive
22 | COc1ccccc1C#Cc1ccc2c(c1)O[C@@H](CN(C)C(C)=O)[C@@H](C)CN([C@H](C)CO)S2(=O)=O | inactive
23 | COc1ccc(NC(=O)Nc2ccc3c(c2)C(=O)N([C@H](C)CO)C[C@@H](C)[C@@H](CN(C)C(=O)Nc2cccc4ccccc24)O3)cc1 | inactive
24 | C[C@@H]1CCCCO[C@@H](CN(C)C(=O)Cc2ccccc2)[C@@H](C)CN([C@@H](C)CO)C(=O)c2cc(NC(=O)Nc3ccc4c(c3)OCO4)ccc2O1 | inactive
25 | CCCCC/C=C/C=C1/C(=O)C=C[C@@H]1C/C=C\CCCC(=O)O | inactive
26 | C[C@@H]1CN([C@H](C)CO)C(=O)c2cc(NS(=O)(=O)c3cccs3)ccc2O[C@@H](C)CCCCO[C@@H]1CN(C)Cc1ccc(C(F)(F)F)cc1 | inactive
27 | C[C@@H]1CN([C@H](C)CO)C(=O)Cc2cc(NC(=O)Nc3ccc(F)cc3)ccc2O[C@H]1CN(C)S(C)(=O)=O | inactive
28 | Cc1ccc(S(=O)(=O)Nc2ccc3c(c2)C(=O)N([C@H](C)CO)C[C@H](C)[C@@H](CN(C)Cc2ccncc2)OCCCC[C@H](C)O3)cc1 | inactive
29 | COc1ccc(S(=O)(=O)N(C)C[C@@H]2Oc3ccc(NC(=O)Nc4c(C)noc4C)cc3CC(=O)N([C@H](C)CO)C[C@@H]2C)cc1 | inactive
